# Test results reported in PubChem BioAssay AID504339 (National Center for Advancing Translational Sciences (NCATS), 2011).
# “And” between values parts separate entries of the source, which are not always exact repeats. Equal values may be shown once. The whole screen tested about 390,000 compounds, of which about 17,000 (4.4%) were called active. The shares of active, inactive and inconclusive entries below differ from those in the screen. Calls follow the shape of the dose curve; as a rule, active = well fitted inhibition curve with a large enough effect; inconclusive = small, poorly fitted or top-dose-only effect; inactive = no such curve, though single readings can be large or run the other way. Where the call is inconclusive, the potency comes from a doubtful curve fit.
# Target: Lysine-specific demethylase 4A (Homo sapiens) (UniProt O75164)
# Sequence of UniProt O75164 (O75164 whole entry, looked up, the tested form may be a part): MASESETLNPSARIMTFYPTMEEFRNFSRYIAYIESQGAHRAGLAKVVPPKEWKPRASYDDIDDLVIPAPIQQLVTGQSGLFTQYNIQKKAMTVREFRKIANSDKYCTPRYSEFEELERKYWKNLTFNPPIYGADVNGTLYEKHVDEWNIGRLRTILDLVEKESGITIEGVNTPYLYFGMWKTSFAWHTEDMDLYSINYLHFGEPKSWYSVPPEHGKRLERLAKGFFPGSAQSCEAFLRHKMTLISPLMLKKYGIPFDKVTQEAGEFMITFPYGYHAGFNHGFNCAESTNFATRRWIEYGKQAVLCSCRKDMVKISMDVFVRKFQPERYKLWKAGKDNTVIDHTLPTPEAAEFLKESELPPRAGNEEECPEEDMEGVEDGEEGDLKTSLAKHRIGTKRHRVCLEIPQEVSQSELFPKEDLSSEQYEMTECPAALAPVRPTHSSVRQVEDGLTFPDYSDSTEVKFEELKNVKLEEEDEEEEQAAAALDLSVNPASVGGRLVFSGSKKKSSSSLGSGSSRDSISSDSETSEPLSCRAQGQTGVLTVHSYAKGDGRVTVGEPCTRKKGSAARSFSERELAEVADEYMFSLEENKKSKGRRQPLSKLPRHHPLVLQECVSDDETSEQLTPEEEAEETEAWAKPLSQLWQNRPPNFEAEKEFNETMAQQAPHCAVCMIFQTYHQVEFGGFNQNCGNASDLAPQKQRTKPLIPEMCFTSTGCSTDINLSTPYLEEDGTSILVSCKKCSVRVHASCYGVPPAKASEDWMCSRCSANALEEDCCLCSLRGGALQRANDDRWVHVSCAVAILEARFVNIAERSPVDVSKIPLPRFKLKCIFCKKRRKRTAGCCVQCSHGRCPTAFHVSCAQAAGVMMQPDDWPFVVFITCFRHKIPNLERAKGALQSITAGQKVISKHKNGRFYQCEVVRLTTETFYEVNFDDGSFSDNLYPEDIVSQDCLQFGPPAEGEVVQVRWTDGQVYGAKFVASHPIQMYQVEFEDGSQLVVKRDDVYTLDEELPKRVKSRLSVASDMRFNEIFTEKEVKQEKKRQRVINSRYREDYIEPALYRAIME
# Assay: qHTS Assay for Inhibitors of JMJD2A-Tudor Domain; also: nearly all actives have a fitted effect of over 50% in size
# Conditions: AlphaScreen JMJD2A-Tudor / H3K4me3 peptide binding; activity change, negative = inhibition: at 114 µM (top of the series)
# % is scaled to controls: 0 for no effect and ±100 for the full control effect; potency is read from the fitted curve at half-maximal effect; tags tell the direction and shape of the fitted curve.
Compound,Potency,"activity change, negative = inhibition"
Cc1ccc(CCC(=O)Nc2ccc(N(C)C)cc2)o1,"inconclusive: 56.2 µM [inhibitor, partial curve]",
COc1ccc(C(=O)N2CCN(c3ccc(C)cc3C)CC2)cc1OC,,inactive: -14.8%
Cc1cc(C)cc(NS(=O)(=O)c2ccc3[nH]cc(C(=O)N4CCc5ccccc54)c(=O)c3c2)c1,,inactive: -30.8%
Cc1c(C(=O)Nc2ccccc2F)sc2ncnc(N(C)C3CCCCC3)c12,"inconclusive: 89.1 µM [inhibitor, single point]",
COc1ccc(-c2c(-c3cc(OC)cc(OC)c3)n(C)c3ccc(-c4ccc(S(N)(=O)=O)cc4)cc23)cc1,"inconclusive: 20 µM [inhibitor, partial curve]",
CCn1nnc2cc(C(=O)Nc3cc(Cl)ccc3C)ccc21,,inactive: -6.08%
COc1ccc(C(=O)NC(=S)NNC(=O)c2ccc(NC(C)=O)cc2)cc1Br,,inactive: -15.4%
COC(=O)c1ccccc1NC(=S)NC(=O)c1ccc2ccccc2c1,"inconclusive: 22.4 µM [inhibitor, full curve]",
Cc1cccc(N2CCN(S(=O)(=O)c3c(C(=O)N4CCCCC4)c(C)n(C)c3C)CC2)c1C,"inconclusive: 56.2 µM [inhibitor, partial curve, poor fit]",
CN(Cc1ccco1)C(=O)CN1C(=O)NC2(CCCCC2)C1=O,"inconclusive: 50.1 µM [inhibitor, partial curve]",
Cc1ccc2nc(CCc3ccc(N)cc3)[nH]c2c1,"inconclusive: 79.4 µM [inhibitor, partial curve]",
CNC(=O)/C(C#N)=C/c1c(N2CCN(c3cccc(Cl)c3)CC2)nc2c(C)cccn2c1=O,"inconclusive: 14.1 µM [inhibitor, full curve]",
Cc1nn(-c2ccc(N3CCCC3)nn2)c(C)c1CCC(=O)Nc1ccc(F)cc1F,,inactive: -23%
Nc1cc(=O)nc(SCC(=O)Nc2ccc(F)cc2)n1CCc1ccccc1,,inactive: -11.6%
COc1ccc(N2CC(NC(=O)c3ccco3)CC2=O)cc1 (centres undefined),,inactive: -11%
CCn1c(CNC(=O)c2ccc(OC)cc2)nnc1SCC(=O)Nc1ccc(C)cc1,,inactive: -16.8%
COc1ccc(CN(CC(O)COc2cccc3[nH]cc(C)c23)C(C)(C)C)cc1 (centres undefined),active: 50.1 µM,
COC(=O)c1ccc(N=C2S/C(=C\c3cc(C)n(-c4cccnc4)c3C)C(=O)N2C)cc1,"inconclusive: 44.7 µM [inhibitor, partial curve]",
CCN(CC)c1ccc(N)cc1S(=O)(=O)Nc1ccc(OC)cc1,,inactive: -24.8%
COc1ccccc1/C=C/C(=O)c1cc(Br)ccc1OC(=O)c1ccco1,active: 56.2 µM,
CCOC(=O)C(C(=O)OCC)C(C)C#CCN1CCCCC1 (centres undefined),,inactive: -2.86%
Nc1cc2c(cc1[N+](=O)[O-])OCO2,"inconclusive: 50.1 µM [inhibitor, partial curve]",
COc1ccc(NC(=O)Nc2c[nH]c(=O)[nH]c2=O)cc1OC,,inactive: 2.82%
Cc1ccc(C)c(N(C(=O)c2snc(C(N)=O)c2N)C(C(=O)NCC2CCCO2)c2cccs2)c1 (centres undefined),active: 11.2 µM,
CSCCC(NC(=O)c1ccc([N+](=O)[O-])cc1Cl)C(=O)OCC(=O)NCCCc1ccccc1 (centres undefined),"inconclusive: 79.4 µM [inhibitor, single point]",

Compound,Potency,"activity change, negative = inhibition"
CCCCn1c(-c2csc(CCC)c2)n[nH]c1=S,"inconclusive: 89.1 µM [inhibitor, partial curve]",
Cc1cc(C)nc(SCC(=O)N/N=C/c2cccn2-c2cccc(C(F)(F)F)c2)n1,"inconclusive: 100 µM [inhibitor, single point]",
CCN(CC)C1CCN(Cc2c(C(=O)N3CCCCCCC3)nc3ccc(Cl)cn23)C1 (centres undefined),,inactive: -27.2%
Cc1ccc2nc(CSc3nc(C)ccc3C#N)[nH]c2c1,"inconclusive: 89.1 µM [inhibitor, single point]",
COc1ccc(Nc2cc(C)c3ccccc3n2)cc1,"inconclusive: 56.2 µM [inhibitor, partial curve]",
Cc1cccc(C)c1NC(=O)CCCN1C(=O)C(c2ccccc2)Oc2cccnc21 (centres undefined),,inactive: -4.73%
CCC(=O)NNC(=S)NC(=O)c1ccc(C)cc1,"inconclusive: 31.6 µM [inhibitor, full curve]",
O=C(Nc1ccc2c(c1)nc1n2CCN(C2CCCCC2)C1)c1ccco1,,inactive: -15.4% [at 11.4 µM]
COc1ccc2[nH]cc(CCNS(=O)(=O)c3ccc(C)cc3)c2c1,"inconclusive: 50.1 µM [inhibitor, partial curve]",
CC(C)OC(=O)CNc1n[nH]c(=S)[nH]c1=O,active: 79.4 µM,
Cc1ccc(Cn2c(=N)n(CC(O)c3ccco3)c3ccccc32)cc1 (centres undefined),"inconclusive: 56.2 µM [inhibitor, partial curve]",
N#C/C(=C\c1ccccc1)C(=O)Nc1cccnc1,,inactive: -13%
Cc1ccc(NC(=O)CCn2cccc2)cc1Cl,"inconclusive: 56.2 µM [inhibitor, partial curve]",
CCC1(c2ccc(Cl)cc2)NC(=O)N(Cc2ccc(C(=O)OC)cc2)C1=O (centres undefined),,inactive: 0.344%
c1ccc(CN2CCN(C3=Nc4cccc5cccc3c45)CC2)cc1,"inconclusive: 39.8 µM [inhibitor, partial curve]",
CCN(Cc1ccccc1)S(=O)(=O)c1ccc(C(=O)N(CCCN(C)C)c2nc3cc(C)cc(C)c3s2)cc1,"inconclusive: 11.2 µM [inhibitor, full curve]",
CCN(CC)S(=O)(=O)c1cc(NC(=O)CSCc2c(C)noc2C)ccc1C,,inactive: -2.76%
O=C(Cn1ncc2c3ccccc3n(Cc3cccc(Cl)c3)c2c1=O)NCc1cccs1,,inactive: -25.8%
COc1cc(-c2nnc(NC(=O)c3ccco3)o2)cc(OC)c1OC,"inconclusive: 35.5 µM [inhibitor, partial curve, poor fit]",
Cc1nc2nc(SCC(=O)C(C)(C)C)[nH]c2cc1Br,"inconclusive: 56.2 µM [inhibitor, partial curve]",
CCOC(=O)C1CCCCN1Cc1cc(OC)ccc1OC (centres undefined),active: 17.8 µM,
Cc1ccc(C(C)C)cc1OCCN1CCCC1,active: 79.4 µM,
Cc1ccccc1/C=N/Nc1ccnc2cc(Cl)ccc12,"inconclusive: 89.1 µM [inhibitor, partial curve]",
O=C(Nc1nc2ccc(S(=O)(=O)N3CCCC3)cc2s1)c1ccccn1,"inconclusive: 56.2 µM [inhibitor, partial curve]",
COc1ccc(C(=O)NNC(=O)C(=O)N2CCCCC2)cc1OC,active: 25.1 µM,

Compound,Potency,"activity change, negative = inhibition"
CC(C)C[C@@H](CNCC(=O)[C@H](C)NC(=O)c1[nH]cnc1C(=O)N[C@@H](C)CN)NC(=O)c1nc[nH]c1C(=O)N[C@@H](Cc1ccccc1)C(=O)O,active: 79.4 µM,
COc1cc(-c2nc(Cn3nnc(C(=O)Nc4ccccc4)c3C)c(C)o2)cc(OC)c1OC,"inconclusive: 25.1 µM [inhibitor, partial curve]",
COc1ccccc1-n1ncc2c(=O)[nH]c(SCC(=O)Nc3ccc(Cl)cc3)nc21,,inactive: -25.3%
CSc1ccccc1NC(=O)CN(C)C(=O)COc1cccc2cccnc12,active: 22.4 µM,
O=C(O)c1cccc(NC(=S)NC(=O)c2ccc(-c3ccccc3)cc2)c1,,inactive: -3.47%
COc1ccc(Br)cc1CN1CCN(c2ncccn2)CC1,active: 22.4 µM,
Cn1c(CSCc2ccc(Cl)cc2)n[nH]c1=S,"inconclusive: 17.8 µM [inhibitor, full curve, poor fit]",
CCOC(=O)CC[C@H](NC(=O)Cn1cnc2c(OCc3ccccc3)ncnc21)C(=O)OCC,,inactive: -2.16%
Fc1ccc(-n2cc(-c3ccccc3)c3c(NN4CCOCC4)ncnc32)cc1,"inconclusive: 56.2 µM [inhibitor, partial curve, poor fit]",
c1cnc2c(OCc3cn4cccnc4n3)cccc2c1,"inconclusive: 56.2 µM [inhibitor, partial curve]",
O=C(CSc1nnc(NC2CCCCC2)s1)NCc1ccco1,,inactive: -14.9%
c1ccc(N=Nc2cn[nH]c2-c2ccco2)cc1,"inconclusive: 56.2 µM [inhibitor, partial curve, poor fit]",
COc1ccccc1N1CC(C)(C)C(=O)N(C(=O)c2ccc(Cl)cc2)C1=S,"inconclusive: 17.8 µM [inhibitor, full curve, poor fit]",
CCOC(=O)/C(=C\c1cccnc1)C(=O)c1cc(C(C)=O)c(Nc2ccccc2)s1,"inconclusive: 56.2 µM [inhibitor, partial curve]",
COc1cc(OC)c2ccc(=O)oc2c1C(CCN1CCN(c2ccccc2)CC1)c1ccc(N(C)C)cc1 (centres undefined),active: 25.1 µM and active: 22.4 µM,
Cc1ccccc1CN1C(=O)/C(=C\c2ccc(C(=O)NCCN3CCOCC3)cc2)Sc2ccccc21,"inconclusive: 11.2 µM [inhibitor, full curve]",
CCN(CC)CCCNC(=O)CN1C(=O)CCn2nc(-c3cn(C)c4ccccc34)cc21,,inactive: -17.9%
Cc1ccc2nc(-c3ccccc3F)c(Nc3ccc(Cl)cc3)n2c1,"inconclusive: 20 µM [inhibitor, full curve]",
CC(=O)N(Cc1ccc(F)cc1)c1cccc(C)c1C,,inactive: -0.725%
CN(CC(=O)Nc1ccc(Cl)cc1)C(=O)c1cc(-c2cccs2)nn1-c1ccccc1,,inactive: -10.1%
O=[N+]([O-])c1ccc2nc(-c3ccccc3)oc2c1,,inactive: -18.8%
COc1ccc(CCNC(=O)c2ccc3c(c2)c(C)c(C)n3Cc2ccc(F)cc2)c(OC)c1OC,"inconclusive: 15.8 µM [inhibitor, full curve]",
COc1ccccc1N1CCN(C(=O)CCCNC(=O)Cn2cnc3sc(C)c(C)c3c2=O)CC1,,inactive: -9.36%
N#Cc1c2n(c3c(N)ncnc13)CCCCC2,,inactive: -0.361%
